{"source": "paper PMC6212790", "note": "This is one part of the list. At the low end of the ranking, values are background and their order means little."}
{"target": "T1, GST-Rok (full length) (UniProt O34857)", "T1 sequence": "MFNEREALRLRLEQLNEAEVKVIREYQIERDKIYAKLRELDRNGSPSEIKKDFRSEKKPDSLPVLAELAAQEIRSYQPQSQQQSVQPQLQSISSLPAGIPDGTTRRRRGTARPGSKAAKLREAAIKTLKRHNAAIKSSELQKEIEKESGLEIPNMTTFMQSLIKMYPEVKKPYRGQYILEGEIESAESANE", "assay": "protein binding microarray;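 also: rank score from −0.5 (least bound) to 0.5 (best bound)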", "conditions": "Rok is a gene silencer of Bacillus subtilis; high values mean tight binding; most listed sequences are background and not binding sites; double strand, one strand shown", "units": {"binding signal": "E-score"}}
{"sequence": "ACGTAAGC", "binding signal": 0.00598}
{"sequence": "CCGTCTCA", "binding signal": -0.246}
{"sequence": "GATGTGGA", "binding signal": -0.0326}
{"sequence": "TGCCTACA", "binding signal": -0.045}
{"sequence": "ACAATTTC", "binding signal": 0.145}
{"sequence": "AGCTCTAC", "binding signal": -0.0117}
{"sequence": "CGTTTGTC", "binding signal": -0.0759}
{"sequence": "AGCTGATC", "binding signal": 0.145}
{"sequence": "CGTGTCAA", "binding signal": -0.293}
{"sequence": "TGAGGGCA", "binding signal": -0.401}
{"sequence": "CTTAGCTA", "binding signal": 0.145}
{"sequence": "ACTGGCGC", "binding signal": -0.131}
{"sequence": "GGCCAGCC", "binding signal": -0.443}
{"sequence": "ATATCGCG", "binding signal": 0.274}
{"sequence": "ACTGCCAT", "binding signal": -0.0629}
{"sequence": "CAATAAAA", "binding signal": 0.172}
{"sequence": "ACAGCCGG", "binding signal": -0.277}
{"sequence": "ATTTGCTA", "binding signal": 0.207}
{"sequence": "CACGCACC", "binding signal": -0.211}
{"sequence": "ATTATGGG", "binding signal": 0.0961}
{"sequence": "AATTAAAA", "binding signal": 0.24}
{"sequence": "TGCCTCAA", "binding signal": -0.0324}
{"sequence": "GCGTAGCA", "binding signal": -0.308}
{"sequence": "CGGTACAC", "binding signal": 0.0822}
{"sequence": "TTGTACAA", "binding signal": 0.387}
{"sequence": "CCACATGA", "binding signal": 0.0193}
{"sequence": "GCCGTATA", "binding signal": -0.119}
{"sequence": "AGCGTTAT", "binding signal": 0.0581}
{"sequence": "GCATGTTA", "binding signal": 0.0472}
{"sequence": "CACATCAC", "binding signal": -0.0151}
{"sequence": "CGCATAAG", "binding signal": 0.0614}
{"sequence": "CCTTTGAG", "binding signal": -0.367}
{"sequence": "GCGAAGGA", "binding signal": -0.241}
{"sequence": "AGTAGACG", "binding signal": 0.00568}
{"sequence": "ATAAGGCA", "binding signal": 0.114}
{"sequence": "GTTCAAAC", "binding signal": -0.0663}
{"sequence": "CGTTACGC", "binding signal": -0.0534}
{"sequence": "TAATGTAA", "binding signal": 0.334}
{"sequence": "GACGGTAA", "binding signal": 0.156}
{"sequence": "GTGCCACA", "binding signal": -0.216}
{"sequence": "CATCTAAA", "binding signal": 0.0555}
{"sequence": "CTAAAAAC", "binding signal": 0.082}
{"sequence": "CGTTAGTC", "binding signal": 0.0567}
{"sequence": "CCAAACTC", "binding signal": -0.0373}
{"sequence": "AGCTCGGG", "binding signal": -0.281}
{"sequence": "GAGACGGA", "binding signal": -0.116}
{"sequence": "TAGGGGAA", "binding signal": -0.219}
{"sequence": "ATCTCCCG", "binding signal": -0.0534}
{"sequence": "AAGGTGAC", "binding signal": -0.231}
{"sequence": "CGTACCGA", "binding signal": -0.0515}
{"sequence": "ACACGCCC", "binding signal": -0.241}
{"sequence": "GCCAAGGA", "binding signal": -0.214}
{"sequence": "GCATCAGA", "binding signal": -0.134}
{"sequence": "AATAAGGA", "binding signal": -0.0412}
{"sequence": "GGTGATTA", "binding signal": -0.0256}
{"sequence": "CACCCCGA", "binding signal": -0.0384}
{"sequence": "ATCAACGG", "binding signal": 0.216}
{"sequence": "CATCCTAA", "binding signal": 0.0114}
{"sequence": "CGCAACTA", "binding signal": 0.323}
{"sequence": "AGTCTGGA", "binding signal": 0.0388}
{"sequence": "TCATCCAA", "binding signal": -0.0745}
{"sequence": "ACGAGAGG", "binding signal": -0.3}
{"sequence": "AACCTTAA", "binding signal": -0.105}
{"sequence": "ACGCTGCA", "binding signal": 0.0028}
{"sequence": "GCGCGGGA", "binding signal": -0.269}
{"sequence": "GCATAAGA", "binding signal": 0.145}
{"sequence": "GATTACAC", "binding signal": -0.099}
{"sequence": "TCGTCAGA", "binding signal": -0.0975}
{"sequence": "TGACGGCA", "binding signal": -0.309}
{"sequence": "TCCAGTCA", "binding signal": -0.0213}
{"sequence": "GACGATCC", "binding signal": -0.102}
{"sequence": "GTCTTCGA", "binding signal": -0.0312}
{"sequence": "AGCTATAT", "binding signal": 0.337}
{"sequence": "ACGCACGA", "binding signal": -0.0729}
{"sequence": "GTGGGGAA", "binding signal": -0.313}
{"sequence": "ATCGCAGC", "binding signal": 0.0136}
{"sequence": "CAGAGGCC", "binding signal": -0.321}
{"sequence": "ACGGACGA", "binding signal": -0.0826}
{"sequence": "ACCTGTTC", "binding signal": -0.0419}
{"sequence": "ACTTAGGC", "binding signal": -0.0335}
{"sequence": "ATGATGAG", "binding signal": 0.0727}
{"sequence": "GTCATTCA", "binding signal": -0.00959}
{"sequence": "ACCTTTTC", "binding signal": -0.0938}
{"sequence": "CGGAGTAG", "binding signal": 0.0653}
{"sequence": "GCATCGGC", "binding signal": -0.173}
{"sequence": "GCTTATAC", "binding signal": 0.226}
{"sequence": "CCTGAGAA", "binding signal": -0.197}
{"sequence": "GGCGGACA", "binding signal": -0.216}
{"sequence": "CATTAGTC", "binding signal": 0.0943}
{"sequence": "CCGATGAC", "binding signal": -0.254}
{"sequence": "TAATCAAA", "binding signal": 0.0631}
{"sequence": "CCCTAGAC", "binding signal": -0.327}
{"sequence": "AAGTATAG", "binding signal": 0.127}
{"sequence": "CGCCAAGC", "binding signal": -0.262}
{"sequence": "CTAAACGA", "binding signal": -0.072}
{"sequence": "ACCCACAT", "binding signal": 0.0678}
{"sequence": "TGACCAAA", "binding signal": 0.0772}
{"sequence": "TGAAGGCA", "binding signal": -0.0995}
{"sequence": "CGTTCACC", "binding signal": -0.171}
{"sequence": "CCGTCATC", "binding signal": -0.0898}
{"sequence": "AGTCTCCG", "binding signal": -0.191}
{"sequence": "CAATGTGG", "binding signal": -0.0719}
{"sequence": "CCCTTAGC", "binding signal": -0.222}
{"sequence": "CGTTGACA", "binding signal": -0.146}
{"sequence": "ATCTGCTG", "binding signal": -0.0203}
{"sequence": "AACACCTC", "binding signal": 0.0365}
{"sequence": "ACGCTAGC", "binding signal": 0.182}
{"sequence": "GGGCGAAA", "binding signal": -0.113}
{"sequence": "AATATATG", "binding signal": 0.33}
{"sequence": "CAGCCATG", "binding signal": -0.108}
{"sequence": "CGGAAGCA", "binding signal": -0.272}
{"sequence": "GAGCAAAC", "binding signal": -0.12}
{"sequence": "AACAGATA", "binding signal": 0.168}
{"sequence": "TCGAACAA", "binding signal": -0.0601}
{"sequence": "CTTCTACC", "binding signal": 0.327}
{"sequence": "CCGGTGAG", "binding signal": -0.258}
{"sequence": "TATTCCCA", "binding signal": 0.0492}
{"sequence": "CGTGCGAA", "binding signal": -0.119}
{"sequence": "GATCGTTA", "binding signal": 0.00221}
{"sequence": "CGGGGGAC", "binding signal": -0.365}
{"sequence": "AACGATCC", "binding signal": 0.0726}
{"sequence": "GCGGTAGA", "binding signal": 0.337}
{"sequence": "ATACCCAT", "binding signal": 0.297}
{"sequence": "ACAGTAAT", "binding signal": 0.244}
{"sequence": "GCTATAGA", "binding signal": 0.151}
{"sequence": "AAAACCCC", "binding signal": -0.355}
{"sequence": "CCTAGAAG", "binding signal": -0.29}
{"sequence": "AGTCTCAA", "binding signal": -0.0576}
{"sequence": "GGGAGCGA", "binding signal": -0.389}
{"sequence": "ACGGCGAC", "binding signal": -0.305}
{"sequence": "ACAACCTA", "binding signal": 0.0459}
{"sequence": "ACGGGCCC", "binding signal": -0.31}
{"sequence": "AGGGCTAT", "binding signal": 0.0264}
{"sequence": "AGCTAGAG", "binding signal": -0.0103}
{"sequence": "ACCAGCGC", "binding signal": -0.218}
{"sequence": "CACGAGAG", "binding signal": -0.184}
{"sequence": "GGGGCTCA", "binding signal": -0.4}
{"sequence": "CCTACTAG", "binding signal": 0.0992}
{"sequence": "AGGTCTCA", "binding signal": -0.0826}
{"sequence": "GTCTATCA", "binding signal": -0.00992}
{"sequence": "CTCCGTCA", "binding signal": -0.143}
{"sequence": "GGAGTTAC", "binding signal": 0.0656}
{"sequence": "GTAGGGTA", "binding signal": 0.256}
{"sequence": "AAATCTAT", "binding signal": 0.315}
{"sequence": "ATGTCTGC", "binding signal": 0.011}
{"sequence": "CGGAGGGA", "binding signal": -0.354}
{"sequence": "ATGAGTTC", "binding signal": -0.0711}
{"sequence": "GCTCTTCC", "binding signal": -0.304}
{"sequence": "AGTATCTA", "binding signal": 0.343}
{"sequence": "ATCGTCCA", "binding signal": -0.0609}
{"sequence": "CCGAGAAA", "binding signal": 0.0756}
{"sequence": "CGACTGGA", "binding signal": -0.0992}
{"sequence": "CATAACTC", "binding signal": 0.184}
{"sequence": "CATCTTCC", "binding signal": -0.128}
{"sequence": "TAGAGAGA", "binding signal": -0.0178}
{"sequence": "CATGAAGC", "binding signal": -0.206}
{"sequence": "CAACCGCA", "binding signal": -0.0677}
{"sequence": "AAACGACC", "binding signal": -0.254}
{"sequence": "GGAGGAAC", "binding signal": -0.0861}
{"sequence": "AAACCGGG", "binding signal": -0.153}
{"sequence": "ACGGGATA", "binding signal": 0.0997}
{"sequence": "TAATGTGA", "binding signal": 0.102}
{"sequence": "CCACTGGG", "binding signal": -0.243}
{"sequence": "TCTTCTAA", "binding signal": 0.0283}
{"sequence": "ACTCCCAC", "binding signal": -0.205}
{"sequence": "ACTATCGG", "binding signal": 0.168}
{"sequence": "CAAACCCC", "binding signal": -0.313}
{"sequence": "CTGCTCAC", "binding signal": -0.0532}
{"sequence": "TACGCGTA", "binding signal": 0.187}
{"sequence": "CACAAGTA", "binding signal": 0.183}
{"sequence": "TCACCTGA", "binding signal": -0.0909}
{"sequence": "ATAAGCTA", "binding signal": 0.178}
